Laboratory results from the supplement of paper PMC4604168 (melanoma cell lines).
The list shows a part of the results. Many values rest on one well or one pass, so single values are uncertain.

How the values were obtained:
Assay in all cases: cell count relative to DMSO control; melanoma cells; higher = more viable cells
Details in all cases: library dose: standard library concentration; 72 h
501Mel = system: 501Mel
A101D = system: A101D
A2058 = system: A2058
A375 = system: A375
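Further: cells treated in 1,536-well plates, then fixed and DAPI-stained, with nuclei counted from automated high-throughput microscope images.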

| Compound | cell count (501Mel) | cell count (A101D) | cell count (A2058) | cell count (A375) |
| --- | --- | --- | --- | --- |
| CC(C)C[C@H](NC(=O)[C@H](Cc1ccccc1)NC(=O)c1cnccn1)B(O)O [Bortezomib] + COc1ccc2c(c1)CCC1C2CCC2(C)C(NCCCCCCN3C(=O)C=CC3=O)CCC12 [U73122] (first compound 0.005 µM, partner dose 2 µM) | 25.3% | 7.2% | 8.11% | 83.6% |
| CC(C)C[C@H](NC(=O)[C@H](Cc1ccccc1)NC(=O)c1cnccn1)B(O)O [Bortezomib] + COC(=O)c1sccc1S(=O)(=O)Nc1ccc(Nc2ccccc2)cc1OC [GSK0660] (first compound 0.005 µM, partner dose 5 µM) | 5.28% | 13.6% | 8.03% | 82.9% |
| Cc1cc(Nc2cc(N3CCN(C)CC3)nc(/C=C/c3ccccc3)n2)n[nH]1 + O=C(Nc1ccccc1)c1cc([N+](=O)[O-])ccc1Cl [GW9662] (first compound 0.2 µM, partner dose 10 µM) | 63.3% | 74% | 74.6% | 105% |
| COc1ccc(C2=N[C@@H](c3ccc(Cl)cc3)[C@@H](c3ccc(Cl)cc3)N2C(=O)N2CCNC(=O)C2)c(OC(C)C)c1 [Nutlin-3] + Cn1cc(/C=C2\C(=O)Nc3cccnc32)c2ccccc21 [GW441756] (first compound 0.5 µM, partner dose 2 µM) | 86.9% | 65.2% | 96.4% | 93.9% |
| Cc1cn(-c2cc(NC(=O)c3ccc(C)c(Nc4nccc(-c5cccnc5)n4)c3)cc(C(F)(F)F)c2)cn1 [nilotinib] + O=C(Nc1ccccc1)c1cc([N+](=O)[O-])ccc1Cl [GW9662] (first compound 1 µM, partner dose 10 µM) | 89.1% | 83.5% | 106% | 156% |
| Cn1c(=O)n(-c2ccc(C(C)(C)C#N)cc2)c2c3cc(-c4cnc5ccccc5c4)ccc3ncc21 + COc1cc(N2CCC(N3CCN(C)CC3)CC2)ccc1Nc1ncc(Cl)c(Nc2ccccc2S(=O)(=O)C(C)C)n1 [NVP-TAE684] (first compound 0.02 µM, partner dose 0.4 µM) | 52.2% | 49.8% | 52.4% | 64% |
| Cn1c(=O)n(-c2ccc(C(C)(C)C#N)cc2)c2c3cc(-c4cnc5ccccc5c4)ccc3ncc21 + COc1cc2ncnc(Nc3ccc(Oc4ccccc4)cc3)c2cc1OC [SrcI1] (first compound 0.02 µM, partner dose 10 µM) | 45.6% | 64.7% | 45.3% | 93.2% |
| CC(C)C[C@H](NC(=O)[C@H](Cc1ccccc1)NC(=O)c1cnccn1)B(O)O [Bortezomib] + COc1cc2c(Oc3ccc4[nH]c(C)cc4c3F)ncnc2cc1OCCCN1CCCC1 [cediranib] (first compound 0.005 µM, partner dose 2 µM) | – | 17.9% | 10.8% | 74.4% |
| Cc1cc(Nc2cc(N3CCN(C)CC3)nc(/C=C/c3ccccc3)n2)n[nH]1 + Cn1cc(/C=C2\C(=O)Nc3cccnc32)c2ccccc21 [GW441756] (first compound 0.2 µM, partner dose 2 µM) | 74.3% | 80.7% | 88.2% | 114% |
| COc1ccc(C2=N[C@@H](c3ccc(Cl)cc3)[C@@H](c3ccc(Cl)cc3)N2C(=O)N2CCNC(=O)C2)c(OC(C)C)c1 [Nutlin-3] + N#Cc1c(O)c2c(-c3ccc(-c4ccccc4O)cc3)csc2[nH]c1=O [A769662] (first compound 0.5 µM, partner dose 10 µM) | 97.5% | 83.4% | 98.5% | 96.6% |
| Cc1cn(-c2cc(NC(=O)c3ccc(C)c(Nc4nccc(-c5cccnc5)n4)c3)cc(C(F)(F)F)c2)cn1 [nilotinib] + NC1(c2ccc(-c3nc4ccn5c(=O)[nH]nc5c4cc3-c3ccccc3)cc2)CCC1 [MK2206] (first compound 1 µM, partner dose 2 µM) | – | 91.9% | 81.2% | – |
| COc1ccc(C2=N[C@@H](c3ccc(Cl)cc3)[C@@H](c3ccc(Cl)cc3)N2C(=O)N2CCNC(=O)C2)c(OC(C)C)c1 [Nutlin-3] + Nc1ccn([C@@H]2O[C@H](CO)[C@@H](O)C2(F)F)c(=O)n1 [gemcitabine] (first compound 0.5 µM, partner dose 0.002 µM) | – | 80.8% | 64.7% | 101% |
| Cn1c(=O)n(-c2ccc(C(C)(C)C#N)cc2)c2c3cc(-c4cnc5ccccc5c4)ccc3ncc21 + COC(=O)c1sccc1S(=O)(=O)Nc1ccc(Nc2ccccc2)cc1OC [GSK0660] (first compound 0.02 µM, partner dose 5 µM) | 84.9% | 74.8% | 54.2% | 91.8% |
